# Laboratory results from publication PMC6212790.
# The other results are listed elsewhere or left out. At the low end of the ranking the order means little.
# Molecular target: T1, GST-Rok (full length) (UniProt O34857)
# T1 sequence: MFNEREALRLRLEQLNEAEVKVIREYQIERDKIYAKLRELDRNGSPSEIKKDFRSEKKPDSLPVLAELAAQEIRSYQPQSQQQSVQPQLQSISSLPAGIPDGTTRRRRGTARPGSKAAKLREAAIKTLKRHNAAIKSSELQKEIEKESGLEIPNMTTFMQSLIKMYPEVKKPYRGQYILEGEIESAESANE
# Assay: protein binding microarray;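 note: rank score from −0.5 (least bound) to 0.5 (best bound)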
# Conditions: Rok is a gene silencer of Bacillus subtilis; high values mean tight binding; most listed sequences are background and not binding sites; double strand, one strand shown
row,Sequence,binding signal
1,CACCTGAC,-0.144 E-score
2,TATGCGCA,0.194 E-score
3,ATCGACGA,0.0292 E-score
4,ACGAGTCG,0.0271 E-score
5,ACGACCTG,-0.147 E-score
6,GCCGACAC,-0.219 E-score
7,AAGACCAG,-0.221 E-score
8,AAACTTAT,0.291 E-score
9,CCCTTGGC,-0.199 E-score
10,GCAAATAC,0.193 E-score
11,CTTAAAGC,-0.0533 E-score
12,ATGTTTAA,0.0814 E-score
13,GAAGTTGC,0.0518 E-score
14,ATAGTGCG,0.138 E-score
15,GGACAACA,-0.0547 E-score
16,AACACATA,0.165 E-score
17,CTGCTGTC,-0.225 E-score
18,AACGAGGA,-0.2 E-score
19,GTGGCCAC,-0.123 E-score
20,GCCCGGAA,-0.291 E-score
21,GCGTGTCA,-0.151 E-score
22,ACTTTTGA,0.0315 E-score
23,ACGCGTAA,0.164 E-score
24,AAACTGTA,0.174 E-score
25,CACGTTCC,-0.0616 E-score

row,Sequence,binding signal
1,GCCGCAAA,-0.232 E-score
2,TGCAAGAA,-0.163 E-score
3,TCACTGGA,-0.0487 E-score
4,AGGGCTGA,-0.211 E-score
5,AGTCTTTG,-0.00272 E-score
6,GGGACGTA,-0.0206 E-score
7,GAACTTGA,0.103 E-score
8,CAACCTTC,-0.135 E-score
9,AGATTTGC,0.0078 E-score
10,CAAAGAAA,-0.0318 E-score
11,CATTGTAA,0.112 E-score
12,CTAGGAGA,0.00198 E-score
13,TGGAAGAA,-0.0407 E-score
14,ACATTTCG,0.193 E-score
15,GCTAAGCC,-0.0953 E-score
16,ATTACGAA,0.138 E-score
17,CCTGTGAC,-0.0643 E-score
18,CCGCGAAG,-0.13 E-score
19,CAACGAAC,0.0188 E-score
20,TACCATGA,0.207 E-score
21,CACATAGG,-0.111 E-score
22,CCCAAGTC,-0.19 E-score
23,CAGGTATA,0.231 E-score
24,GCAGGGCC,-0.297 E-score
25,AAACGCGC,-0.17 E-score

row,Sequence,binding signal
1,TGCGAGAA,-0.000374 E-score
2,CCCACTAC,-0.033 E-score
3,ACAGGTCA,-0.129 E-score
4,ATGGATCA,-0.0234 E-score
5,GCAGGAAA,-0.0854 E-score
6,CAACACTA,0.163 E-score
7,AACTAGCG,0.241 E-score
8,CAGCAACC,-0.0895 E-score
9,AGTAATGA,0.159 E-score
10,ACATAATA,0.231 E-score
11,GTTATTGA,0.0636 E-score
12,GCCACCCA,-0.278 E-score
13,CCAAAGGA,-0.327 E-score
14,CCTGTATA,0.243 E-score
15,GCGGTGAA,-0.05 E-score
16,AGAGCACC,-0.177 E-score
17,AAGTACGG,0.158 E-score
18,GCGTGAGA,-0.00166 E-score
19,AAATTAAA,0.166 E-score
20,ACCATCCG,-0.115 E-score
21,ATGTGACC,-0.00165 E-score
22,GCTTCCCA,-0.243 E-score
23,AGGATCCA,0.0105 E-score
24,ACTAGAAT,0.356 E-score
25,CTCGCTCA,-0.0503 E-score

row,Sequence,binding signal
1,CGGCCCGC,-0.44 E-score
2,AAGAGGTA,0.0718 E-score
3,ACTAATAC,0.265 E-score
4,AAGGAGTC,-0.107 E-score
5,ACAAACTA,0.383 E-score
6,GACAAGAC,-0.134 E-score
7,CCCGAGCA,-0.158 E-score
8,AGCCCGAT,-0.0445 E-score
9,AAGGCCCA,-0.281 E-score
10,GAACTTAC,-0.017 E-score
11,GACTAGTC,0.224 E-score
12,TCAATTGA,0.232 E-score
13,CATACACG,0.0583 E-score
14,GACCGGTC,-0.0764 E-score
15,ACACAACT,0.111 E-score
16,ATGACTGC,0.00695 E-score
17,CGTCAGTA,0.0497 E-score
18,CCAAATCC,-0.154 E-score
19,AGTCAGTA,0.229 E-score
20,GCGCGCAC,0.0371 E-score
21,ACCGGATG,-0.0132 E-score
22,CTGTGAGA,-0.0466 E-score
23,ACATCGGA,0.06 E-score
24,AGGTAACT,0.267 E-score
25,CCTGACAA,-0.0933 E-score

row,Sequence,binding signal
1,AACACAAT,-0.0265 E-score
2,CAGTCAAG,-0.233 E-score
3,GCGTACAA,0.00133 E-score
4,GGCCTTAA,-0.224 E-score
5,CTCTCATC,0.00156 E-score
6,TGCCGCCA,-0.137 E-score
7,ATAGCGCA,0.215 E-score
8,ATCTGTAA,0.178 E-score
9,TCAAATCA,-0.0506 E-score
10,GATGTTTA,0.04 E-score
11,CAATTAAG,-0.152 E-score
12,TAGCATGA,0.0672 E-score
13,ACGTATAC,0.232 E-score
14,AGGCGTTG,-0.109 E-score
15,ATGGACCA,-0.172 E-score
16,GACAGAAA,-0.116 E-score
17,TGGTGTAA,0.112 E-score
18,CATATACA,0.258 E-score
19,ACGGAGCT,-0.0758 E-score
20,CACTCTAA,-0.123 E-score
21,CGGGTAGA,0.137 E-score
22,GGACTCCC,-0.38 E-score
23,GATCCACA,0.0107 E-score
24,CACACCAA,0.0711 E-score
25,CCCCTACC,-0.301 E-score

row,Sequence,binding signal
1,CCTCTTTC,-0.133 E-score
2,ATAAAAAA,0.206 E-score
3,CACAAATC,0.0545 E-score
4,CTGACCCC,-0.4 E-score
5,GAAATCCC,-0.217 E-score
6,ACTCCCGC,-0.225 E-score
7,TAAGGCAA,0.0401 E-score
8,CTATAGAG,0.0607 E-score
9,CCGGACTA,0.000572 E-score
10,CATGTTCC,-0.0114 E-score
11,CGACCCCA,-0.369 E-score
12,CCTCCACG,-0.303 E-score
13,CACGAGCC,-0.204 E-score
14,ATGACGAC,-0.0768 E-score
15,GAGTTTCC,-0.177 E-score
16,AGGCCACA,-0.268 E-score
17,AACTATCC,0.254 E-score
18,AACGATTG,0.0129 E-score
19,GCGGATGA,-0.113 E-score
20,GCGACCGA,-0.225 E-score
21,GTCTAAGA,-0.158 E-score
22,ACTGGAAG,0.0356 E-score
23,GAACCATA,0.043 E-score
24,AGAAGAAT,0.149 E-score
25,ATGTTGAA,0.131 E-score

row,Sequence,binding signal
1,AGTGTGAC,-0.174 E-score
2,CCGTGGCA,-0.285 E-score
3,AGTGTGAA,0.178 E-score
4,GCTGTAAC,0.0827 E-score
5,ACTAGCAG,-0.00857 E-score
6,AGTGACCC,-0.225 E-score
7,CAGTGAAC,-0.00602 E-score
8,CTTTCAGC,0.0557 E-score
9,TGCATCCA,0.00981 E-score
10,AATCGCTG,0.00392 E-score
11,GGGTTGCA,-0.161 E-score
12,CTTATGTA,0.111 E-score
13,CTTGTTCC,-0.0961 E-score
14,AAGGAAGA,-0.0679 E-score
15,ATCGATTC,0.09 E-score
16,CTAGATCC,0.261 E-score
17,ATTGGAAA,-0.112 E-score
18,CGTTGCTC,-0.157 E-score
19,GACACGTA,0.0655 E-score
20,CGTAAAGC,-0.0697 E-score
21,ATAGGAGG,-0.167 E-score
22,GTGGATGA,-0.132 E-score
23,CCAACACA,0.0907 E-score
24,GGGATTCA,-0.21 E-score
25,GGCCGCCA,-0.332 E-score

row,Sequence,binding signal
1,AGTCTATG,0.0053 E-score
2,AACTAGCA,0.27 E-score
3,TATAAAAA,0.214 E-score
4,GGGGTTAA,-0.0141 E-score
5,ATACCGAT,0.342 E-score
6,AGCGGGAT,-0.123 E-score
7,GCGAGCGC,-0.109 E-score
8,GCTTAGCC,-0.181 E-score
9,AAATGAGC,-0.0594 E-score
10,GGCCTGGA,-0.277 E-score
11,TCGTGGAA,-0.00322 E-score
12,CGGGCTAC,-0.0679 E-score
13,GAAAGCTC,-0.0929 E-score
14,CTGTCGGC,-0.173 E-score
15,AGAGGACT,-0.176 E-score
16,GCTAGTCC,0.0874 E-score
17,AAAACATT,0.0682 E-score
18,AAATTTAA,0.162 E-score
19,AAGGGTTA,-0.101 E-score
20,TAAGGATA,0.0747 E-score
21,AGCGTGTA,0.184 E-score
22,GCTCGCGA,-0.155 E-score
23,GATTCAAA,-0.0146 E-score
24,AGCACGGC,-0.287 E-score
25,CTGCACGA,-0.0737 E-score

row,Sequence,binding signal
1,GTTTTGTA,0.188 E-score
2,TACTTTCA,0.329 E-score
3,AGGTTGAG,0.0244 E-score
4,AGCGGCTG,-0.194 E-score
5,CCTCTGCC,-0.184 E-score
6,AGTGTCGC,-0.013 E-score
7,GATAAGAA,-0.0724 E-score
8,AATATAAA,0.266 E-score
9,CAAACACA,0.0719 E-score
10,TAAGCTCA,-0.117 E-score
11,CTAAACTC,0.235 E-score
12,CACCCAGA,-0.257 E-score
13,AAAGAGCT,-0.123 E-score
14,CGAGATAC,0.175 E-score
15,CGTCACCA,-0.222 E-score
16,GCGCCGAC,-0.252 E-score
17,CGGCTCGC,-0.24 E-score
18,AGAATTGG,0.15 E-score
19,GCATTGGA,-0.178 E-score
